{"sequences": {"note": "Amino acid sequences for entries named in this document (tags omitted). A change or cut given only in a name is not applied to a line headed by its entry. Residues count along the entry.", "UniProt Q10589, residues 1-161": "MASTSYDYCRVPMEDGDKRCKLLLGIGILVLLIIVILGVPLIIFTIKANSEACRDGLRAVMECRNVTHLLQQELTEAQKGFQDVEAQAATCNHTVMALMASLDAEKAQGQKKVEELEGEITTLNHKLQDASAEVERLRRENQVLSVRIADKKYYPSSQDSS", "UniProt Q9Y297": "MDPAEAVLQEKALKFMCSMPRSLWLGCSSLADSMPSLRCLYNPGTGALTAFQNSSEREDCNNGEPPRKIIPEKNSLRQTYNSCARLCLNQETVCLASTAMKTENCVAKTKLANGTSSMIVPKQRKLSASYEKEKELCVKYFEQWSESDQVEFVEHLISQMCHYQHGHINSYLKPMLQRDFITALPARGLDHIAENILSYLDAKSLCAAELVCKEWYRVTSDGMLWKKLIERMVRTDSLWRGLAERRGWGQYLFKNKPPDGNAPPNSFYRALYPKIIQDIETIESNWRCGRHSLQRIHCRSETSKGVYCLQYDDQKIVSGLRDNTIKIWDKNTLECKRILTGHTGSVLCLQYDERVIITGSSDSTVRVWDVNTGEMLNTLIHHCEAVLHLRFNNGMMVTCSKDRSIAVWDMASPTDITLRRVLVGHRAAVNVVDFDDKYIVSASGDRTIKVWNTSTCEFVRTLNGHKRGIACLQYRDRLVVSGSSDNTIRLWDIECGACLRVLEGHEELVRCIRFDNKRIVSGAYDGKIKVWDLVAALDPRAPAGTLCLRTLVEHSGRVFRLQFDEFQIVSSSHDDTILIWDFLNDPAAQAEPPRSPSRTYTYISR"}, "source": "paper PMC2851737", "molecules": {"B1": {"name": "HIV-1 Vpu, wild type, expressed from the HxBH10-vpu+ proviral construct in HEK 293T cells (protein, UniProt P69699 1-81)", "chain": "MQPIQIAIVALVVAIIIAIVVWSIVIIEYRKILRQRKIDRLIDRLIERAEDSGNESEGEISALVEMGVEMGHHAPWDVDDL"}, "B2": {"name": "HIV-1 Vpu, wild type, expressed from the HxBH10-vpu+ proviral construct in HeLa cells (protein, UniProt P69699 1-81)", "chain": "B1 chain"}, "B3": {"name": "HIV-1 Vpu, wild type, expressed from SVCMV-vpu+ in HEK 293T cells (protein, UniProt P69699 1-81)", "chain": "B1 chain"}, "B4": {"name": "Vpu KSL, expressed from HxBH10-vpu KSL in HeLa cells (protein, UniProt P69699 1-81)", "chain": "B1 chain with I6K, I8S, V9L"}}, "key": {"[1]": {"target": "endogenous Tetherin of HeLa cells (human (endogenous in HeLa)) (UniProt Q10589)", "test": "co-IP; HeLa cells transfected with HxBH10 proviral constructs, 48 h; lysed in CHAPS buffer; pre-cleared; IP of endogenous Tetherin with anti-Tetherin rabbit serum and protein A sepharose; western blot with anti-Tetherin, anti-Vpu and anti-Env"}, "Myc-His-β-TrCP [2]": {"target": "Myc-His-β-TrCP (UniProt Q9Y297)", "test": "co-IP; HEK 293T cells transfected with SVCMV-vpu constructs and pcDNA/Myc-His-β-TrCP, radiolabelled with 35S-Met/Cys, lysed in CHAPS buffer; IP with anti-myc, then sequentially with anti-Vpu; SDS-PAGE and autoradiography"}, "[3]": {"target": "HA-human Tetherin (human) (UniProt Q10589)", "test": "co-IP; HEK 293T cells co-transfected with HA-Tetherin plasmids and HxBH10 proviral constructs, 48 h; lysed in RIPA-DOC; pre-cleared; IP with anti-Tetherin rabbit serum 2 h at 4°C and protein A sepharose; western blot with anti-Vpu and anti-Tetherin (anti-HA in Fig. 7D)"}, "Myc-His-β-TrCP [4]": {"target": "Myc-His-β-TrCP (UniProt Q9Y297)", "test": "co-IP; HEK 293T cells transfected with SVCMV-vpu constructs and pcDNA/Myc-His-β-TrCP, radiolabelled with 35S-Met/Cys, lysed in CHAPS buffer; IP with anti-myc, then sequentially with anti-Vpu; SDS-PAGE and autoradiography", "remark": "listed apart in the source"}}, "note": "Substitutions are numbered along the chain they refer to. Read-outs that look alike come from different tables or passages of the source. No constants are given. Whether binding was seen depends on the method and setting. Binding seen in cells or lysates may run through a third protein. Some results given as binding are weak or reduced against the parent protein; the word gives no strength.", "data": [{"molecule": "HIV-1 envelope glycoprotein precursor gp160 (from UniProt P03375 33-856)", "values": [{"measurement": "binding", "setting": "[1]", "result": "no binding"}]}, {"molecule": "Vpu S52D,S56D, expressed from SVCMV-vpu S52D,S56D in HEK 293T cells (from UniProt P69699 1-81)", "values": [{"measurement": "binding", "setting": "Myc-His-β-TrCP [2]", "result": "no binding"}]}, {"molecule": "B1", "values": [{"measurement": "binding", "setting": "[3]", "result": "binds"}]}, {"molecule": "B2", "values": [{"measurement": "binding", "setting": "[1]", "result": "binds"}]}, {"molecule": "B3", "values": [{"measurement": "binding", "setting": "Myc-His-β-TrCP [4]", "result": "binds"}]}, {"molecule": "B4", "values": [{"measurement": "binding", "setting": "[1]", "result": "no binding"}]}]}
